# Some of the results follow.
# System: PF3D7_0420300 AP2 domain 1 (GST-tagged)
# Test: gcPBM binding intensity (ln(normalized median fluorescence intensity)); higher = stronger DNA binding
# Summary of the method: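 Binding intensity is the highest Masliner-normalised natural-log median intensity over replicate spots in either probe orientation. To obtain it, GST-tagged P. falciparum DNA-binding domains made in E. coli were incubated for 1 h on an Agilent 4 × 180k array of primer-extended double-stranded 36-bp intergenic genomic probes plus negative controls. Detection used Alexa488 anti-GST antibody with scanning at 488 nm.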
row,Sequence,gcPBM binding intensity (ln)
1,ATTATATATACAACAAGTACAAAAGAAAAATATTAT [XGTACX_site2914],9.63
2,TTTGTAAAAGGTCATACACACATATTCAAAAGAAGT [CACACA_site2947],9.71
3,TATAAATACATCCTATACTTCTCTTTTACAGTTTTA [CACACA_negctrl_site1283],9.29
4,ATATATATATATAGGAGTACATGAAATACTTAAAAA [XGTACX_site8851],9.32
5,AAAAAAGAAATAATCAAATAAATAAAAAAGATGAAT [XGTACX_negctrl_site607],9.7
6,GTGTGAAGATATAAATGCATTTTTTTATACATTTTC [CACACA_negctrl_site117],9.23
7,TGTAAGTATTCTTGAGGTACACATATAAATATAGTA [XGTACX_site3207],9.09
8,AATATTATATAATAAAGTACATATATATTCATATTT [XGTACX_site7204],9.19
9,TGTGTGGATATATGTATGCACTACCCTTTGGGTCAT [GTGCAC_site9506],9.16
10,ATATATTGAACCTATGCATGTAAAATATATGTAATA [TGCATGCA_site644],9.33
11,AAATATTAAATGGAAAACAAATATATATATCTTAAT [XGTACX_negctrl_site383],9.34
12,TTATTTATTTTTTCATGTACTTAAATATATTAATGT [XGTACX_site5804],9.21
13,ATCTATATTTTTATAACACACAATGATGTACATTAC [CACACA_site6633],9.48
14,TGAAAATATTTTATATGTACATATATTATCAATACA [XGTACX_site92],9.09
15,TAGAATAATCTATAAACACACAAACCCAACAAAAGA [CACACA_site6132],9.86
16,ATTTACCCTTGCCATGCACACTTTTTTATAGAAAAT [CACACA_site5857],9.53
17,TATTAATACAGACACACACACACACTAATTAAAATA [CACACA_site7967],10.1
18,AATATATAATTAATTGCACACCTTGTCACGCCAAAA [CACACA_site1174],9.23
19,ATATATAAATTTAATACACACCCAAAAAAAAAAAAA [CACACA_site7719],9.53
20,GAATGAATACGTTTTACACACTTGAATATAATTTCA [CACACA_site989],9.4
21,TAAATATATAAACACACACACATTAATACAGATATT [CACACA_site5851],10.2
22,AAAATTATAAAATGGGCACACATGAAGATTGTAGTA [CACACA_site2226],9.58
23,TAAAGAGTTACCATTTGTACTTACGCACACATAAAA [XGTACX_site3145],9.28

row,Sequence,gcPBM binding intensity (ln)
1,TATATTTGAAATATATGTACTTATAATACAGTTTAA [XGTACX_site8039],8.95
2,CACAGATAAATTAACACACACACACGGATATTTATA [CACACA_site7788],10.2
3,ATGTATACAAATATATGTACGTATGTTCTCTTCTTT [XGTACX_site7865],9.4
4,TTATTAGGTATATATGCACACAATACCCAAAACAAC [CACACA_site4221],9.52
5,GGTAATAAACAATGAAGTACGTAAAGGTAAAATATT [XGTACX_site2647],9.78
6,TGTAAATATAAATGTAATAAATATGTAAAAATAAAT [XGTACX_negctrl_site171],9.49
7,ATTTAATTTTCATGATGTACTATAGTTTAATGCACA [XGTACX_site1624],9.2
8,TAATAATCAAACTATACACACATAAATAGATATATA [CACACA_site6220],9.71
9,TATTTTCAAAAATATACACACACATAAATATATGTA [CACACA_site8160],9.56
10,TTATATGTATTTCTTTGTACACATTTTTATATATAT [XGTACX_site1462],9.65
11,ATTATGCACCAACACACACACACACCCCTAAAAAAT [CACACA_site2568],10.3
12,CACTTCAAAAAAATATGTACACATATATATATATAT [XGTACX_site3075],9.2
13,TAAATTTTATAAATCTGTACATATGAGCAAGAACAT [XGTACX_site7400],9.39
14,TATCATTTTTTTAAAACACACATAATAATATAAATA [CACACA_site2845],9.15
15,TACCAAAAGAAACACACACACAAAATATATAAATAT [CACACA_site1869],10.2
16,TCCCATATATATATATATATATATATATATAATAAT [TGCATGCA_negctrl_site41],9.03
17,TTTGGCTAGTCAAGTTGTACAAAAAAAAAAAAAAAA [XGTACX_site8382],8.58
18,ATACTTTTAATATGCACATGCAAATATGAAATATCG [TGCATGCA_site603],9.03
19,AAATAAAAAAAATAAAAGCAATCATAATAAAAATCT [CACACA_negctrl_site161],9.52
20,AATATATTTAATGAGTGTACATTATTTATTATTATT [XGTACX_site6889],9.29
21,AATTTATATTAAAATTGTACATTTCTTCTATAATAC [XGTACX_site8639],9.17
22,TGTATGTATTTGTGTAGTACGCATAAGTAATAAAAC [XGTACX_site6704],9.42
23,AAAAAAAATTAAAATAAAATATAAATATAAAATATA [GTGCAC_negctrl_site714],9.16

row,Sequence,gcPBM binding intensity (ln)
1,TATATATTTTTATGCACACACAAAGAAAATTTTCCT [CACACA_site2863],9.57
2,AAAGTATAACGGATACCATTTATGTGATTATTTTGT [XGTACX_negctrl_site188],9.27
3,AAATATATATAAGCGTGTACACATTCTGAGTGTTGT [XGTACX_site1088],9.53
4,ATAATAAAAATAAAATGTACATACATAAATATATAT [XGTACX_site6228],9.53
5,TATCGTTTTATTCGGTTGCACCAAAAAAATAAAATA [GTGCAC_site9408],8.85
6,AGCTATAATAAATATACACACATATATAAATATGTA [CACACA_site6583],9.37
7,ATATATATATAATAAGTGCAAAAATAATGACCTATA,9.45
8,TTTTGTCGGAAATCGGATAAGAAGAAAAAAAATAAT [GTGCAC_negctrl_site594],9.2
9,AAAAAAAAAAAATACGTGCACTATGATATATTATAT,9.32
10,TTCACTCCATATTATACACACACACTAATGAAAAAA [CACACA_site8991],9.79
11,AAAAAAAAAAAAAGTACACACATACATATAAATATA [CACACA_site8533],9.72
12,ATAATATTTATAAATTGTACTAATGTTCAATAATTA [XGTACX_site7284],9.01
13,GAAATAATTTTTATTTGTACACACATACATATATAT [XGTACX_site1862],9.59
14,AAATTTTATAAAGGAACACACATTTTTTTTTTTTCT [CACACA_site2368],9.27
15,TTATTCATTTCGAAAAGTACAAATTCTGTTTATTAT [XGTACX_site6892],9.19
16,CCACTAATTATGTGCACACAAATTAAAGGTCTACAA [CACACA_site4259],9.46
17,TACATGATAAGATGTAGTACATAAAAGAATAAATTA [XGTACX_site787],9.34
18,TTTTCAAAAATATATACACACATGCATATTACGGTG [CACACA_site775],9.36
19,TATTCAATACTTAATGCACACAATAAAAAAAATATG [CACACA_site2467],9.36
20,ACGATAACATTTTTACGTACATATATTTTCACGGAG [XGTACX_site8764],9.28
21,AAATGAAAAATAAGGAAAAAAAAAAAAAAAAAAAAA [CACACA_negctrl_site1715],8.25
22,TAAAATATTTCAAAGGTGCAATGATAATTTAAGACG [GTGCAC_site9609],9.3
23,ATATTGACAGGAAAAATTTTCTTTGAATCTTTAAAA [CACACA_negctrl_site1191],8.73

row,Sequence,gcPBM binding intensity (ln)
1,ACAAAAAAAATAAGCACACATATATATATATATATA [CACACA_site816],9.36
2,TATGTTATATTGGACACACACAATAAACATTATGTA [CACACA_site1657],9.44
3,ATATATATATATAAGCGTACGCGTAGTTAAATTAAT [XGTACX_site7693],9.46
4,AAAAAAATAACAAAAGTGCATTTTTATGAGTTATCT,9.2
5,ATATATAATTAATAAAGTACATTAATTATTTCTTTT [XGTACX_site3034],9.03
6,TATAATTAAAATTTGTGTACGTATGACAAAACATTT [XGTACX_site7072],9.2
7,AGATACAAGCACTATAGTACACATACTAAAAATATA [XGTACX_site5849],9.35
8,TTTCCTTACCCTTTCCTGGTGTAGAAATTATACTCT [TGCATGCA_negctrl_site116],9.22
9,AAAAAAAAAAAACATACACACATACATACAGATATA [CACACA_site4681],9.95
10,TTTCACTACACAAATACACACAAAAATATATGTGCA [CACACA_site2632],9.49
11,TTCTATTTTATATGTGCACACATATACACCCACAAA [CACACA_site1130],9.45
12,TTCTTTTTGAAACACACACACACAAGAAAATATATA [CACACA_site3110],10.1
13,AAATTTTTTGTTCAATGTACTTTTTTATTATATTTT [XGTACX_site5298],9.51
14,GATATATAATATAATACACACATTTTATGAATGTAA [CACACA_site24],9.48
15,ATTTTTTAAATTTAAACACACATTTTGTATATGTTT [CACACA_site1654],9.48
16,TCTACTATTATATATTGTACAAATGATACTTATATT [XGTACX_site1819],9.3
17,TTAAAATTTTTCAAAAGTACATAAATAATATATATT [XGTACX_site4694],8.91
18,AATATATTATATATATGTACATAATGTGTAATACCT [XGTACX_site2845],9.37
19,TTTTTTTTTGTTAAAGTGCATATATTAAATTTTCCT [GTGCAC_site9677],9.14
20,GGAAAAAAATATAAAAGTACTTTTTATTTATTTTAT [XGTACX_site7418],9.06
